# Measurements reported in PubChem BioAssay AID504333 (National Center for Advancing Translational Sciences (NCATS), 2011).
# In all, about 360,000 compounds went through this assay and about 16,000 (4.4%) were called active. Inconclusive results, whose numbers are uncertain, are shown with a selection of clear calls. Calls come from the whole dose curve; as a rule, active = well fitted inhibition curve with a large enough effect; inconclusive = small, poorly fitted or top-dose-only effect; inactive = no such curve, though single readings can be large or run the other way. A potency beside an inconclusive call is a rough fit, not a confirmed value.
# Molecular target: Bromodomain adjacent to zinc finger domain protein 2B (Homo sapiens) (UniProt Q9UIF8)
# Chain of UniProt Q9UIF8 (Q9UIF8 whole entry, looked up, the tested form may be a part): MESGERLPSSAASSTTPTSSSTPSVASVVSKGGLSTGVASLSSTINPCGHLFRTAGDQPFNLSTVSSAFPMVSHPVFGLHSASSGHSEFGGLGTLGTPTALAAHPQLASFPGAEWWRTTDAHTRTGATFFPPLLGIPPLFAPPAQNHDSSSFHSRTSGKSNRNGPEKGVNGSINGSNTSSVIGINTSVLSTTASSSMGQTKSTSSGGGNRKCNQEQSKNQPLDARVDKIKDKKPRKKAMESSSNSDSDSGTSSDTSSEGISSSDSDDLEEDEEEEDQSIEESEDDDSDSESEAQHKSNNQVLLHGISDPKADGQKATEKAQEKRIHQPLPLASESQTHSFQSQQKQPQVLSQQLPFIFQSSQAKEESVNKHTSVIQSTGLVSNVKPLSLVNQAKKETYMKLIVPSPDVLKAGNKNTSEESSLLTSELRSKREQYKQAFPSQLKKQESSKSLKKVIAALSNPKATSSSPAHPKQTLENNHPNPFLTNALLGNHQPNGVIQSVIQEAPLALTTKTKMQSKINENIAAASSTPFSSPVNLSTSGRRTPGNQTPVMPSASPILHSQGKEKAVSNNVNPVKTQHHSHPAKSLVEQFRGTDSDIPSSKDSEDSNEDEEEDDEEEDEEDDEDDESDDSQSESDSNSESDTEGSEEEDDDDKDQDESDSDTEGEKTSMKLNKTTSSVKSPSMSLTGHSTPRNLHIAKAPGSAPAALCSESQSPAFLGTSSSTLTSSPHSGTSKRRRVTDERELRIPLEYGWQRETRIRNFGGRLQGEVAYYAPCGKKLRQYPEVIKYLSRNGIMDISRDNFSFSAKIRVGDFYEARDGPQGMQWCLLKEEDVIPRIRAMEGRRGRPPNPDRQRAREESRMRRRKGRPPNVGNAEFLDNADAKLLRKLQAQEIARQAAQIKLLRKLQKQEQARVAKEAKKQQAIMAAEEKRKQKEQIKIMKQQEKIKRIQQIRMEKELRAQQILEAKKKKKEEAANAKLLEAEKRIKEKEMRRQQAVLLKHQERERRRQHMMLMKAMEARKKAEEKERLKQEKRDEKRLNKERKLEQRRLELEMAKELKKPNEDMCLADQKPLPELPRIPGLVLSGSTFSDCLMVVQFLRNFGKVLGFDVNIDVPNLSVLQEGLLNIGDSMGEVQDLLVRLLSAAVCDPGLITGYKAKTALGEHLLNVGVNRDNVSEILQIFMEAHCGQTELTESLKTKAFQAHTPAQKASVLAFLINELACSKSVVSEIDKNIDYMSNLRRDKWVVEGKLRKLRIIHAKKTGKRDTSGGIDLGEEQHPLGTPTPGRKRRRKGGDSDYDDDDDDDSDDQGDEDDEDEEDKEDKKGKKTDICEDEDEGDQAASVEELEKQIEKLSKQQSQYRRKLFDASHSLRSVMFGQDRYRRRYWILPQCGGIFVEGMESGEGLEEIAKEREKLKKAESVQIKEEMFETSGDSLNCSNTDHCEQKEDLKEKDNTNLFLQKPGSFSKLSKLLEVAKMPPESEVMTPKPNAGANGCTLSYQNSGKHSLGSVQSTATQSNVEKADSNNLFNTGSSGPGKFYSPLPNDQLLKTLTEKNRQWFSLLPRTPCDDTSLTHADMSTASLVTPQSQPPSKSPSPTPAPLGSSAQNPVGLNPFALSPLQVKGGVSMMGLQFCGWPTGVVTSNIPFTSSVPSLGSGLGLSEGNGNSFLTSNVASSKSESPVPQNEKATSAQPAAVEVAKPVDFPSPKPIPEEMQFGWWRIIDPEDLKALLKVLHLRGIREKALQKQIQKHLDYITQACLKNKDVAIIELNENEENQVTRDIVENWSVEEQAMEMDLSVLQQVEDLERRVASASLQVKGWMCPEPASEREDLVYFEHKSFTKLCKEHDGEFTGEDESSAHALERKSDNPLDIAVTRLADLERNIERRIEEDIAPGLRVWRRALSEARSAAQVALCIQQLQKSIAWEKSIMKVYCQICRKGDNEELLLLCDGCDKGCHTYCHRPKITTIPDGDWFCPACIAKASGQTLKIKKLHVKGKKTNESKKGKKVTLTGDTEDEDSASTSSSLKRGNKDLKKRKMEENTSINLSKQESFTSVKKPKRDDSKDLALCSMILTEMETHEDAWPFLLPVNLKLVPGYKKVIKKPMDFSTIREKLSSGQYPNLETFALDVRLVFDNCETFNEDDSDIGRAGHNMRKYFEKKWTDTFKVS
# Assay: qHTS Assay for Inhibitors of BAZ2B; note: nearly all actives have a fitted effect of over 60% in size
# Details: AlphaScreen BAZ2B-H3K14Ac peptide displacement; series mostly up to 114 µM
# Method in brief: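 In this displacement format the biotinylated H3(5-23) peptide acetylated at Lys14 serves as ligand at 50 nM, with BAZ2B at 50 nM in PBS pH 7.4 containing 0.01% Tween-20. Donor and acceptor beads are 10 ug/mL final.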
# Potency is the fitted concentration of half-maximal effect; tags give direction and shape of the fitted curve.
row,Compound,Potency
1,CCOc1cc2c3c(c1)C(C)=CC(C)(C)N3C(=O)C2=O,"inconclusive: 11.2 µM [inhibitor, full curve, poor fit]"
2,CCOc1ccc(N2C(=O)CC(/C=C3/N(C)c4ccccc4C3(C)C)C2=O)cc1 (centres undefined),"inconclusive: 50.1 µM [inhibitor, partial curve]"
3,Fc1ccc(CSc2nc3ccccc3[nH]2)cc1,"inconclusive: 89.1 µM [inhibitor, single point]"
4,COC(=O)c1ccc(C2/C(=C(/O)c3ccc4c(c3)CC(C)O4)C(=O)C(=O)N2Cc2ccncc2)cc1 (centres undefined),"inconclusive: 79.4 µM [inhibitor, single point]"
5,Cc1ccc(C)c(Cn2c(C)c(CNCc3ccc(F)cc3)c(C(=O)O)c2C)c1,inactive
6,CC(=O)Nc1nnc(SCc2cc(=O)c3cccc(C)c3[nH]2)s1,inactive
7,O=C(CSc1nnc2ccc(-c3ccco3)nn12)Nc1ccccc1F,"inconclusive: 89.1 µM [inhibitor, single point]"
8,CC(=O)N1CCN(C(=S)NC(=O)c2ccc(S(=O)(=O)N3CCOCC3)cc2)CC1,active: 50.1 µM
9,O=C(CS(=O)CC(=O)Nc1cnc2ccccc2c1)Nc1ccc(Cl)cc1 (centres undefined),inactive
10,COc1ccc(OC)c(C2C(C(=O)c3ccco3)=C(O)C(=O)N2CC2CCCO2)c1 (centres undefined),"inconclusive: 89.1 µM [inhibitor, single point]"
11,Nc1ccc(Br)c2c1C(=O)c1ccccc1C2=O,active: 10 µM
12,COc1ccc(C=O)cc1COc1ccc2c(c1)OCO2,"inconclusive: 79.4 µM [inhibitor, single point]"
13,O=C1CCN1C1(C(=O)NC2CCCCC2)CCCC1,inactive
14,CCOC(=O)c1cc2c(ccn2C)n1CC(=O)N(CC)CC,"inconclusive: 89.1 µM [inhibitor, single point]"
15,C=CCNC(=O)c1onc(CSc2ccccc2)c1C(=O)O,"inconclusive: 89.1 µM [inhibitor, single point]"
16,Cc1cc(-n2c(C)cc(C(=O)COc3cccnc3[N+](=O)[O-])c2C)no1,"inconclusive: 89.1 µM [inhibitor, single point]"
17,Cn1c(C23CC4CC(CC(C4)C2)C3)n[nH]c1=S,inactive
18,COC(=O)c1sccc1NC(=O)Nc1ccc(C)cc1,inactive
19,COc1c(C(=O)Nc2ccc(Cc3ccncc3)cc2)ccc2ccccc12,"inconclusive: 79.4 µM [inhibitor, single point]"
20,CCOc1ncccc1C(=O)OCC(=O)c1ccc[nH]1,inactive
21,Cc1nnc(-c2ccc(N3CCCCCC3)c([N+](=O)[O-])c2)o1,"inconclusive: 44.7 µM [inhibitor, partial curve]"
22,CC(=O)N/C(=C\c1ccc(F)cc1)C(=O)NC(C(=O)O)C(C)C (centres undefined),inactive
23,COc1ccc(CCNC(=O)C(=O)NCC2OCCN2S(=O)(=O)c2ccc(Cl)cc2)cc1OC (centres undefined),inactive
24,O=C(Nc1ccc2nc(-c3ccco3)c(-c3ccco3)nc2c1)N1CCCCCC1,active: 11.2 µM
25,Cc1ccc(C(=O)N/C(=C\c2ccco2)C(=O)NCCCn2ccnc2)cc1C,active: 7.94 µM

row,Compound,Potency
1,CCn1c(=O)c2cc(C(=O)NCCCN(C)Cc3ccccc3)sc2c2ccccc21,"inconclusive: 50.1 µM [inhibitor, partial curve]"
2,ClCc1csc(-c2ccc(Cl)cc2)n1,inactive
3,Cc1cccc(S(=O)(=O)N/N=c2\sc3ccccc3n2C)c1,inactive
4,CCOC(=O)N1CCN(CC(O)COc2ccc(OC)cc2C(C)(C)C)CC1 (centres undefined),"inconclusive: 89.1 µM [inhibitor, single point]"
5,CC(C)CNC(=O)C(=O)NNC(=O)c1ccco1,"inconclusive: 56.2 µM [inhibitor, partial curve]"
6,O=C(O)CCn1cnc2onc(-c3ccccc3Cl)c2c1=O,active: 50.1 µM
7,Cc1cccc(C(=O)N2CCc3cc(-c4nc(NC(=O)CN5CCCC5)sc4C)ccc32)c1,"inconclusive: 50.1 µM [inhibitor, partial curve]"
8,C#CC(C)(C)NC(=O)c1sccc1Oc1ccc(F)cc1[N+](=O)[O-],"inconclusive: 70.8 µM [inhibitor, single point]"
9,Oc1c(C(c2ccc(Cl)cc2)N2CCCC2)cc(Cl)c2cccnc12 (centres undefined),active: 31.6 µM
10,COc1cc(OC)c(C2SCCS2)c(OC)c1,"inconclusive: 79.4 µM [inhibitor, single point]"
11,CC1C/C(=N/Nc2nc3ccccc3[nH]2)CC(C)(C)C1 (centres undefined),"inconclusive: 44.7 µM [inhibitor, partial curve]"
12,O=[N+]([O-])c1ccc(N2CCN(c3ccc(O)cc3)CC2)c(Cl)c1,active: 20 µM
13,CN(Cc1cccc(Cl)c1Cl)c1ccc(S(=O)(=O)N2CCCCC2)cc1[N+](=O)[O-],"inconclusive: 8.91 µM [inhibitor, full curve]"
14,O=C1C(C=NC2CC2)=C(O)c2ccccc21,"inconclusive: 100 µM [inhibitor, single point]"
15,C=CCn1c(SCc2c(C)noc2C)nc2sc(C)c(C)c2c1=O,"inconclusive: 89.1 µM [inhibitor, single point]"
16,CC(=O)c1cccc(NC(=O)c2ccc(C(=O)Nc3cccc(C(C)=O)c3)nc2)c1,"inconclusive: 79.4 µM [inhibitor, single point]"
17,CN(C)c1ccc(/C=N/Nc2ccc(-n3ccnc3)nn2)cc1,active: 17.8 µM
18,COc1ccc(NC(=S)N(CCO)Cc2cc3c(C)cc(C)cc3[nH]c2=O)cc1,"inconclusive: 70.8 µM [inhibitor, single point]"
19,O=[N+]([O-])c1ccc(N/N=C/c2sc(N3CCOCC3)nc2-c2ccccc2)c(S(=O)(=O)Nc2ccc(Cl)cc2)c1,active: 11.2 µM
20,Cc1ccc(C)c(NC(=S)N/N=C/C(C)c2ccccc2)c1 (centres undefined),"inconclusive: 70.8 µM [inhibitor, single point]"
21,CCOC(=O)c1c(C)c(C(=O)Nc2ccc(N(C)C)cc2)c(C)n1CC,"inconclusive: 56.2 µM [inhibitor, partial curve]"
22,COC(=O)c1cc2c(ccn2-c2ccc(F)cc2)n1Cc1ccc(C#N)cc1,"inconclusive: 31.6 µM [inhibitor, partial curve]"
23,CC(=O)Nc1ccc(Nc2ccc(N3C(=O)CCCC3=O)cc2[N+](=O)[O-])cc1,"inconclusive: 70.8 µM [inhibitor, single point]"
24,CC(=N\NC(=O)c1ccc([N+](=O)[O-])cc1)/C(=N/O)C(=O)Nc1ccccc1,active: 50.1 µM
25,COc1ccc(-c2cn3c(C)c(C(=O)NCCN4CCOCC4)sc3n2)cc1,"inconclusive: 79.4 µM [inhibitor, single point]"

row,Compound,Potency
1,CCOC(=O)c1sc2ccccc2c1S(=O)(=O)NCc1ccc(F)cc1,inactive
2,COc1cccc(NC(=O)C2C3C=CC(O3)C2C(=O)O)c1 (centres undefined),inactive
3,C=C(C)[C@@H]1CCC2(C(=O)O)CC[C@]3(C)[C@H](CC[C@@H]4[C@@]5(C)CCC(=O)C(C)(C)[C@@H]5CC[C@]43C)[C@@H]12 (some centres undefined),inactive
4,CCOc1ccccc1OCC(=O)NCc1ccco1,"inconclusive: 79.4 µM [inhibitor, single point]"
5,N#C/C(=N\Nc1ccccc1)C(=N)N1CCCCC1,"inconclusive: 89.1 µM [inhibitor, single point]"
6,Cc1cc(C)c(C(=O)C(C)OC(=O)c2ccccn2)cc1C (centres undefined),active: 79.4 µM
7,CC(=O)n1c(Cl)c(NC(=O)CCl)c2ccccc21,active: 44.7 µM
8,Cc1cccc(N2CCN(C(=O)CCC(=O)N3CCOc4ccc(Cl)cc43)CC2C)c1 (centres undefined),"inconclusive: 89.1 µM [inhibitor, single point]"
9,CCOC(=O)c1c(C)nn(-c2ccc(NC(=O)/C=C/C(=O)O)cc2)c1C,inactive
10,Cc1ccccc1N=C/C=C1\N(C)c2ccccc2C1(C)C,inactive
11,CCC12CC3CC(C1)CC(C(=O)Nc1nn[nH]n1)(C3)C2,"inconclusive: 89.1 µM [inhibitor, single point]"
12,Cn1c(=O)n(CCCO)c(=O)c2c1nc1n2CCCN1Cc1ccccc1,"inconclusive: 70.8 µM [inhibitor, single point]"
13,Cc1ccc2cc(C#N)c(NCCCNC(=O)C3CCCO3)nc2c1 (centres undefined),inactive
14,C=CCn1c(Cc2nc3ccccc3[nH]2)n[nH]c1=S,"inconclusive: 50.1 µM [inhibitor, partial curve]"
15,O=C(COC(=O)c1ccccn1)Nc1nc(-c2ccccc2)cs1,active: 50.1 µM
16,O=C(NCCCN1CCN(c2ccccc2)CC1)c1ccc2nc(Cc3ccccc3)oc2c1,"inconclusive: 39.8 µM [inhibitor, partial curve]"
17,CCOC(=O)/C=C(C)\C=C\c1c[nH]c2ccccc12,"inconclusive: 44.7 µM [inhibitor, partial curve]"
18,COc1ccc(-c2cc(C(=O)NC(C)c3ccccn3)c3ccccc3n2)cc1OC (centres undefined),inactive
19,O=C(CNc1ccc2c(c1)OCO2)N/N=C\c1ccccc1Cl,active: 50.1 µM
20,CC(=O)N1[C@H](C)C=C[C@]1(Cc1ccccc1)C(=O)NCCc1c[nH]c2ccccc12,"inconclusive: 50.1 µM [inhibitor, partial curve]"
21,O=C(O)COc1ccc(Br)cc1/C=N\Nc1ccccn1,inactive
22,c1ccc(-c2nn3c(-c4ccco4)nnc3s2)nc1,inactive
23,CN1CCN(c2ccc(NC(=S)NC(=O)/C=C/c3ccco3)cc2)CC1,"inconclusive: 56.2 µM [inhibitor, partial curve, poor fit]"
24,C=CCN=C1N[C@@H](c2ccc(Br)cc2)C(C(=O)OC)=C(C)N1Cc1ccccc1,"inconclusive: 89.1 µM [inhibitor, single point]"
